Assay results taken from article PMC5892938.
Some of the results follow. At the low end of the ranking the order means little.

target: GST-SBP-SLBP (stem-loop binding protein) (UniProt Q14493); experiment: targeted RNA Bind-n-Seq; conditions: RBNS binding buffer: 25 mM Tris pH 7.5, 150 mM KCl, 3 mM MgCl2, 0.1% Tween, 0.5 mg/mL BSA, 1 mM DTT; 27 nM protein, 750 pM RNA pool; temperature not stated; high values mean tight binding;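 also: DESeq read counts versus GST-SBP nonspecific binding control pulldown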

Row | Sequence | binding signal (log2 fold change)
1 | GGUCACGUCUCAAUCAACUCAAAAGAGGGGGGGAAAACCCCUUUGCCCUCGUCAUCAACAGCUCGCAGUCAAG | -0.00746
2 | GGUCACGUCUCAAUCAACUCUUUCCCCAGGGAAACCCCUGGCAAUCUCAACAGCUCGCAGUCAAG | -0.307
3 | GGUCACGUCUCAAUCAACUCAUAAGAGGGGGGGAAAACCCCUUUGCCCUCCAACUCAACAGCUCGCAGUCAAG | -0.339
4 | GGUCACGUCUCAAUCAACUCUUCUCCCAGGGAAAGCCCUGGCAAAUUCAACAGCUCGCAGUCAAG | 0.0797
5 | GGUCACGUCUCAAUCAACUCCCCGGAGGGGGGGAAAACCCCUUUACCCUCAACAUCAACAGCUCGCAGUCAAG | -0.226
6 | GGUCACGUCUCAAUCAACUCCCACGAGGGGGGGAAAACCCCUUUACCCUCAUAAUCAACAGCUCGCAGUCAAG | -0.177
7 | GGUCACGUCUCAAUCAACUCAUCUUCAGGAGUUUGCUCCUGUAUUUUCAACAGCUCGCAGUCAAG | -0.00449
8 | GGUCACGUCUCAAUCAACUCUAUCGAGGGGGGGAAAACCCCUUUACCCUCUUCAUCAACAGCUCGCAGUCAAG | 0.0731
9 | GGUCACGUCUCAAUCAACUCCAACGAGGGGGGGAAAACCCCUUUACCCUCAUCAUCAACAGCUCGCAGUCAAG | -0.0309
10 | GGUCACGUCUCAAUCAACUCAGUUCCCAGGGAAAACCCUGGCUUUUUCAACAGCUCGCAGUCAAG | 0.0382
11 | GGUCACGUCUCAAUCAACUCAUCCCCCAGGGAAAACCCUGGCAAUUUCAACAGCUCGCAGUCAAG | 0.169
12 | GGUCACGUCUCAAUCAACUCAUUUUCCAGGGAAAGCCCUGGUUAUUUCAACAGCUCGCAGUCAAG | -0.0778
13 | GGUCACGUCUCAAUCAACUCUUCCUCAGGAGUUUACUCCUGCAUAUUCAACAGCUCGCAGUCAAG | -0.0848
14 | GGUCACGUCUCAAUCAACUCAUUUUCCAGGGAAAUCCCUGGCUAUCUCAACAGCUCGCAGUCAAG | -0.125
15 | GGUCACGUCUCAAUCAACUCCUAAGAGGGGGGGAAAACCCCUUUACCCUCAAAUUCAACAGCUCGCAGUCAAG | 0.127
16 | GGUCACGUCUCAAUCAACUCAUCCCCAGGAGUUUGCUCCUGUAAUUUCAACAGCUCGCAGUCAAG | -0.0675
17 | GGUCACGUCUCAAUCAACUCUUUCUCCAGGGAAAGCCCUGGUUAACUCAACAGCUCGCAGUCAAG | -0.011
18 | GGUCACGUCUCAAUCAACUCAUUCUCCAGGGAAAACCCUGGUUUUCUCAACAGCUCGCAGUCAAG | 0.0993
19 | GGUCACGUCUCAAUCAACUCAAUAGAGGGGGGGAAAACCCCUUUGCCCUCAACAUCAACAGCUCGCAGUCAAG | 0.421

Row | Sequence | binding signal (log2 fold change)
20 | GGUCACGUCUCAAUCAACUCAUACGAGGGGGGGAAAACCCCUUUGCCCUCACAAUCAACAGCUCGCAGUCAAG | -0.414
21 | GGUCACGUCUCAAUCAACUCCUUCGAGGGGGGGAAAACCCCUUUACCCUCUUAUUCAACAGCUCGCAGUCAAG | -0.621
22 | GGUCACGUCUCAAUCAACUCAUUCCCAGGAGUUUUCUCCUGCUUUUUCAACAGCUCGCAGUCAAG | -0.0472
23 | GGUCACGUCUCAAUCAACUCCUCCGAGGGGGGGAAAACCCCUUUACCCUCAUUAUCAACAGCUCGCAGUCAAG | -0.254
24 | GGUCACGUCUCAAUCAACUCAUCUCCAGGAGUUUUCUCCUGUUAUUUCAACAGCUCGCAGUCAAG | -0.153
25 | GGUCACGUCUCAAUCAACUCAUCUCCAGGAGUUUCCUCCUGCUUUUUCAACAGCUCGCAGUCAAG | 0.328
26 | GGUCACGUCUCAAUCAACUCAAUCGAGGGGGGGAAAACCCCUUUGCCCUCAAUAUCAACAGCUCGCAGUCAAG | 0.0668
27 | GGUCACGUCUCAAUCAACUCUUAAGAGGGGGGGAAAACCCCUUUACCCUCCCAAUCAACAGCUCGCAGUCAAG | 0.0769
28 | GGUCACGUCUCAAUCAACUCUAUCCCAGGAGUUUCCUCCUGUUAAUUCAACAGCUCGCAGUCAAG | 0.0245
29 | GGUCACGUCUCAAUCAACUCAUCUCCCAGGGAAAGCCCUGGUUUAUUCAACAGCUCGCAGUCAAG | 0.0359
30 | GGUCACGUCUCAAUCAACUCAUCUCCAGGAGUUUACUCCUGUUUUCUCAACAGCUCGCAGUCAAG | -0.344
31 | GGUCACGUCUCAAUCAACUCAAUCCCAGGAGUUUCCUCCUGUAUACUCAACAGCUCGCAGUCAAG | 0.0945
32 | GGUCACGUCUCAAUCAACUCAACGCCAGGAGUUUACUCCUGCUUAUUCAACAGCUCGCAGUCAAG | -0.252
33 | GGUCACGUCUCAAUCAACUCUAAAGAGGGGGGGAAAACCCCUUUGCCCUCACUUUCAACAGCUCGCAGUCAAG | 0.415
34 | GGUCACGUCUCAAUCAACUCAUCCUCAGGAGUUUUCUCCUGCAUACUCAACAGCUCGCAGUCAAG | 0.0105
35 | GGUCACGUCUCAAUCAACUCAACUUCCAGGGAAAGCCCUGGCUAACUCAACAGCUCGCAGUCAAG | -0.0158
36 | GGUCACGUCUCAAUCAACUCUUCUUCAGGAGUUUACUCCUGUAUAUUCAACAGCUCGCAGUCAAG | 0.0626
37 | GGUCACGUCUCAAUCAACUCUUAAGAGGGGGGGAAAACCCCUUUACCCUCGCCAUCAACAGCUCGCAGUCAAG | 0.455
